± gives the standard error. Variants at the background level are over-represented here.
B1: glmS ribozyme (parent)
chain: AUAAAAGCGCCAGAACUACAGAAAUGUAGUUGACGAGGAGGAGGUUUAUCGAAUUUUCGGCGGAUGCCUCCAAA

Legend:
Conditions in all cases: with glucosamine-6-phosphate
glucosamine-6-phosphate [1] = variants of: B1; assay: self-cleavage kobs at 40 uM GlcN6P; higher = faster cleavage; RNA array
Method in brief: (§1)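 Ribozyme variants carrying barcodes were transcribed in situ on sequenced MiSeq chips by E. coli RNA polymerase and tracked at 37 °C with a hybridised Cy3 probe. They were exposed to 40 μM to 10 mM glucosamine-6-phosphate in HEPES/KCl/Mg(OAc)2 buffer. kobs came from exponential decay fits of normalised per-tile medians, and kcat and KM from weighted Michaelis–Menten fits.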

glucosamine-6-phosphate [2] = variants of: B1; assay: self-cleavage kobs at 10000 uM GlcN6P; higher = faster cleavage; RNA array
Method in brief: as §1

glucosamine-6-phosphate [3] = variants of: B1; assay: self-cleavage kobs at 640 uM GlcN6P; higher = faster cleavage; RNA array
Method in brief: as §1

glucosamine-6-phosphate [4] = variants of: B1; assay: self-cleavage kobs at 160 uM GlcN6P; higher = faster cleavage; RNA array
Method in brief: as §1

glucosamine-6-phosphate [5] = variants of: B1; assay: self-cleavage kobs at 2500 uM GlcN6P; higher = faster cleavage; RNA array
Method in brief: as §1

Variant | self-cleavage kobs at 40 uM GlcN6P (glucosamine-6-phosphate [1]) [s⁻¹] | self-cleavage kobs at 10000 uM GlcN6P (glucosamine-6-phosphate [2]) [s⁻¹] | self-cleavage kobs at 640 uM GlcN6P (glucosamine-6-phosphate [3]) [s⁻¹] | self-cleavage kobs at 160 uM GlcN6P (glucosamine-6-phosphate [4]) [s⁻¹] | self-cleavage kobs at 2500 uM GlcN6P (glucosamine-6-phosphate [5]) [s⁻¹]
G29A G35C G37A | < 1e-05 | < 1e-05 |  |  | 
G29U A53U | 8.45e-05 ± 1e-05 | 0.00266 ± 0.00038 | 0.00114 ± 0.00013 | 0.000275 ± 4.9e-05 | 0.00252 ± 0.00027
G29U U56A G62C | < 1e-05 | < 1e-05 |  |  | 
G29A G44U | < 1e-05 |  |  | < 1e-05 | 
U30A C70U | 0.000214 ± 3.6e-05 | 0.00358 ± 0.00063 | 0.000765 ± 0.00011 | 0.000386 ± 7.4e-05 | 0.00125 ± 0.00027
U31C C68A | < 1e-05 |  |  |  | 
G26U G40U | 0.000119 ± 2.3e-05 |  |  |  | 
U30C U54G C67G | < 1e-05 |  |  |  | 
U31A G43C | < 1e-05 | < 1e-05 | < 1e-05 | < 1e-05 | < 1e-05
U30G G35U | < 1e-05 | < 1e-05 | < 1e-05 | < 1e-05 | < 1e-05
G29A C34A G59A G63A | < 1e-05 |  | < 1e-05 | < 1e-05 | < 1e-05
G26U C70U | 0.000967 ± 0.00041 |  |  |  | 
U30A C50G | 3.17e-05 ± 1.5e-05 |  | 0.00128 ± 0.0005 | 6.28e-05 ± 1.6e-05 | 6.93e-05 ± 1.6e-05
U30A C50U | < 1e-05 |  |  |  | 
U30C U49G | < 1e-05 | < 1e-05 | < 1e-05 | < 1e-05 | 
G29U G35U A42C | < 1e-05 |  |  |  | < 1e-05
U31A U56A | 0.000218 ± 3.2e-05 | 0.00967 ± 0.0011 | 0.00221 ± 0.00061 |  | 0.00123 ± 0.0005
U31A U56G | 0.000249 ± 5.8e-05 | 0.0132 ± 0.0039 | 0.00335 ± 0.00098 | 0.000532 ± 0.00021 | 0.00579 ± 0.0015
G29U G40A G44U C68A | < 1e-05 | < 1e-05 |  |  | 
G29U G32A | 3.81e-05 ± 1.5e-05 | 0.00128 ± 0.00016 | 0.000328 ± 6.3e-05 | 0.000105 ± 2.4e-05 | 0.000738 ± 0.00012
U30C A36C G38C | < 1e-05 |  |  |  | 
U31A G60U | < 1e-05 |  | < 1e-05 | < 1e-05 | < 1e-05
G29U G66A | 8.79e-05 ± 1.5e-05 |  |  |  | 
U30C A39C U47A G59C | < 1e-05 | < 1e-05 |  |  | 
U30C G51C A64U | < 1e-05 | < 1e-05 |  |  | 
G29U G40A U49G U54G | < 1e-05 | < 1e-05 |  |  | 

Variant | self-cleavage kobs at 40 uM GlcN6P (glucosamine-6-phosphate [1]) [s⁻¹] | self-cleavage kobs at 10000 uM GlcN6P (glucosamine-6-phosphate [2]) [s⁻¹] | self-cleavage kobs at 640 uM GlcN6P (glucosamine-6-phosphate [3]) [s⁻¹] | self-cleavage kobs at 160 uM GlcN6P (glucosamine-6-phosphate [4]) [s⁻¹] | self-cleavage kobs at 2500 uM GlcN6P (glucosamine-6-phosphate [5]) [s⁻¹]
G29A G51C G60A | < 1e-05 |  |  | < 1e-05 | 
G29U G43U C71U | < 1e-05 |  |  |  | 
G29A U31C G35U G66A | < 1e-05 |  |  |  | 
G29A G59U G63A A64U | < 1e-05 | < 1e-05 |  |  | 
C19A G29U A36U G41A | < 1e-05 | < 1e-05 |  |  | 
G29C G35C | < 1e-05 |  | < 1e-05 | < 1e-05 | < 1e-05
G29C G35U | < 1e-05 | < 1e-05 | < 1e-05 | < 1e-05 | 
U30A G35U C71A | < 1e-05 |  |  |  | 
U30C A64U | < 1e-05 |  | < 1e-05 | < 1e-05 | 
U30C A64C | < 1e-05 |  | < 1e-05 |  | 
U30C A48U U57G C67G C68A | < 1e-05 |  |  |  | 
U30A A33U C70U | < 1e-05 |  |  |  | 
U31C C34G G37A A42U U47A A52U | < 1e-05 |  |  |  | 
G29C G32C C68G C71U | < 1e-05 | < 1e-05 |  |  | 
U31A G63C | < 1e-05 |  |  | < 1e-05 | < 1e-05
U30C A52C | < 1e-05 |  | < 1e-05 |  | < 1e-05
U31A A36G A52C | < 1e-05 |  |  |  | 
C16U U30G G35U G38C | < 1e-05 |  |  |  | 
G29C C50G C61A U65C | 7.48e-05 ± 2.1e-05 |  |  |  | 
U30G A42C | < 1e-05 | < 1e-05 | < 1e-05 |  | < 1e-05
U30A A33U G41U A52G | < 1e-05 |  |  |  | < 1e-05
G29U A36G | < 1e-05 | < 1e-05 |  | < 1e-05 | 
U31C C67U | 4.68e-05 ± 7.4e-06 |  | 0.000375 ± 4.8e-05 | 0.000125 ± 2e-05 | 
U30A C61G G63C | < 1e-05 |  |  |  | 
G29A A33G G40C A42C G63U C68A | < 1e-05 | < 1e-05 |  | < 1e-05 | < 1e-05
U31G C34U | < 1e-05 | < 1e-05 | < 1e-05 | < 1e-05 | 

Variant | self-cleavage kobs at 40 uM GlcN6P (glucosamine-6-phosphate [1]) [s⁻¹] | self-cleavage kobs at 10000 uM GlcN6P (glucosamine-6-phosphate [2]) [s⁻¹] | self-cleavage kobs at 640 uM GlcN6P (glucosamine-6-phosphate [3]) [s⁻¹] | self-cleavage kobs at 160 uM GlcN6P (glucosamine-6-phosphate [4]) [s⁻¹] | self-cleavage kobs at 2500 uM GlcN6P (glucosamine-6-phosphate [5]) [s⁻¹]
G29C G51A | < 1e-05 | < 1e-05 |  |  | 
U31C G32A U55A C71G | < 1e-05 |  |  |  | 
G29C U31C A39U G44A C50U | < 1e-05 | < 1e-05 |  |  | < 1e-05
U30A A42C C50A | < 1e-05 |  | < 1e-05 |  | < 1e-05
G29C G63A | < 1e-05 | < 1e-05 |  | < 1e-05 | < 1e-05
U30A C58G | < 1e-05 |  |  |  | 
G29U G43A G66A | < 1e-05 | < 1e-05 |  |  | 
U30C G63A | < 1e-05 |  | < 1e-05 |  | < 1e-05
U31C G51U | < 1e-05 |  |  |  | 
U30G G41U C68A | < 1e-05 |  |  |  | 
U31A C34U G59U | < 1e-05 | < 1e-05 |  |  | 
U31C G66C C67G | < 1e-05 |  |  |  | 
G29C A48C | < 1e-05 |  |  | < 1e-05 | 
G29C A48U | < 1e-05 |  |  |  | 
G29C C58U C71U | < 1e-05 | 5.59e-05 ± 1.7e-05 |  |  | 
U30A A39U G63U | < 1e-05 |  | < 1e-05 |  | < 1e-05
U30G C70U | 0.000299 ± 3.2e-05 |  | 0.00108 ± 0.00014 | 0.000471 ± 8.6e-05 | 
G26U C34A | < 1e-05 |  |  |  | < 1e-05
U31A C58G | < 1e-05 |  |  |  | 
U31A C58U | < 1e-05 |  |  | < 1e-05 | 
U30G A53G | 0.000307 ± 5.3e-05 | 0.0151 ± 0.0037 | 0.00172 ± 0.0004 | 0.00064 ± 0.00013 | 0.00534 ± 0.00076
C19A A33G A36G G40A A42G G62U G63A C71A | < 1e-05 |  |  |  | < 1e-05
G29A U56A G63C | < 1e-05 |  |  |  | 
U31A A33G A39U G43A A48U | < 1e-05 | < 1e-05 |  |  | 
U30C A33C | < 1e-05 |  | < 1e-05 | < 1e-05 | 
U31A G38A | < 1e-05 | < 1e-05 |  | < 1e-05 | 

Variant | self-cleavage kobs at 40 uM GlcN6P (glucosamine-6-phosphate [1]) [s⁻¹] | self-cleavage kobs at 10000 uM GlcN6P (glucosamine-6-phosphate [2]) [s⁻¹] | self-cleavage kobs at 640 uM GlcN6P (glucosamine-6-phosphate [3]) [s⁻¹] | self-cleavage kobs at 160 uM GlcN6P (glucosamine-6-phosphate [4]) [s⁻¹] | self-cleavage kobs at 2500 uM GlcN6P (glucosamine-6-phosphate [5]) [s⁻¹]
U31C U45A | 0.000212 ± 6e-05 | 0.0108 ± 0.004 | 0.00258 ± 0.00062 | 0.000613 ± 0.00012 | 0.00783 ± 0.0016
U31C A39G C50U U54G C58A G60C G62U | < 1e-05 |  |  |  | 
U31C A39C A53U G63U | < 1e-05 |  |  |  | 
G29U U56A | 4.68e-05 ± 1.4e-05 | 0.00285 ± 0.00045 | 0.000211 ± 7e-05 | 9.32e-05 ± 2e-05 | 
U30C | < 1e-05 | 0.000395 ± 6.5e-06 | 0.000113 ± 2e-06 | 4.18e-05 ± 1.9e-06 | 0.000759 ± 0.00027
G29A G40U U47A U57G C70A | < 1e-05 | < 1e-05 |  |  | 
G29C G37U U47G G63A | < 1e-05 | < 1e-05 |  |  | 
U31C U55A | 0.000152 ± 2.3e-05 |  | 0.00126 ± 0.00017 | 0.000289 ± 6.8e-05 | 
U31C U55G | 0.000126 ± 1.5e-05 |  |  |  | 
U31A A53C | 4.92e-05 ± 9.4e-06 |  |  |  | 
G29U G43U | < 1e-05 |  | < 1e-05 | < 1e-05 | 
G29U A33G G59A G63A | < 1e-05 | < 1e-05 |  |  | 
G29A G59U C71G | < 1e-05 |  |  |  | 
G29A A42C | < 1e-05 | < 1e-05 | < 1e-05 | < 1e-05 | 
G29U A33U G35A U69A | 0.000163 ± 6.6e-05 | 6.21e-05 ± 3e-05 |  |  | 
U30C G41U | < 1e-05 |  |  | < 1e-05 | 
U30G A42G C58U | < 1e-05 |  |  |  | 
G29A G43A A52G | < 1e-05 |  |  |  | 
C16U U47G | 0.000296 ± 4.7e-05 |  |  |  | 
U30A U47G | 7.81e-05 ± 2.4e-05 | 0.00109 ± 0.00021 | 0.000406 ± 8.6e-05 |  | 0.000481 ± 0.00024
U30G A52C G62U | < 1e-05 | < 1e-05 |  |  | 
U30C U57C | < 1e-05 |  | < 1e-05 |  | 
G29C U30G | 8.92e-05 ± 1.8e-05 | 0.00472 ± 0.00086 | 0.00138 ± 0.00041 | 0.000309 ± 6.9e-05 | 0.00147 ± 0.00036
G29U G35U | < 1e-05 | < 1e-05 |  | < 1e-05 | < 1e-05
G29C U54G G60A | < 1e-05 | < 1e-05 |  |  | 
G29U U57C | < 1e-05 |  |  |  | 
